Like-named read-outs stand apart in the source and are kept apart here.
Target: SARS-CoV-2 RNA-dependent RNA polymerase (RdRp) (Severe acute respiratory syndrome coronavirus 2, UniProt P0DTD1)
Assay: biochemical
[1] = RdRp TR-FRET, mean ± SD of two independent experiments

Row | SMILES | IC50 [µM] | efficacy [1] [%] | IC50 (RdRp TR-FRET, 37 °C 3 h, 11 concentrations, mean ± SD of two independent experiments, read-out: IC50) [µM]
1 | CN(C)CCCn1c2c3ccccc3ccc2c2oc(=O)c3ccccc3c21 [NCGC00014952] | 3.83 ± 4.83 | −121.90 ± 50.78 | –
2 | CCCc1ccc(-c2csc(NC(=O)c3ccncc3N[S+](=O)([O-])c3ccc(C)cc3)n2)cc1 [NCGC00318955] | 13 ± 2.1 | −145.28 ± 8.39 | –
3 | COc1cccc(NC(=O)Cc2c(C)nn(-c3nc(-c4ccc(Cl)cc4)cs3)c2O)c1 [NCGC00347258] | 7.43 ± 2.38 | −56.66 ± 16.43 | –
4 | Cc1cc(OCCCc2c(C(F)(F)F)n(CC(=O)NCc3ccc(C(=O)O)cc3)c3c(-c4c(C)nn(C)c4C)c(Cl)ccc23)cc(C)c1Cl [NCGC00378383] | 5.51 ± 1.33 | −66.44 ± 6.99 | –
5 | COc1cccc(NC(=O)c2cc(-c3ccccc3C(F)(F)F)nc3c2cnn3C)c1 [NCGC00506397] | 6.84 ± 3.21 | −61.84 ± 11.65 | –
6 | COc1cc2c3c(c1O)C1(C=CC(=O)C=C1)CC3N(C)CC2 (centres unmarked) [glaziovine] | – | – | 10.5 ± 3.36

Reference: paper PMC12181400, “Leveraging viral genome sequences and machine learning models for identification of potentially selective antiviral agents” (Communications Chemistry, 2025)
